Drawing on PMC6757366, this text covers binding for two molecules.

These are yes or no findings as the source states them, for the method shown. In cells and extracts the contact can be indirect. Some entries that bind do so weakly or less than the wild type.

For assay [1], the target named is T1, CTCF (human) (UniProt P49711).
T1 sequence: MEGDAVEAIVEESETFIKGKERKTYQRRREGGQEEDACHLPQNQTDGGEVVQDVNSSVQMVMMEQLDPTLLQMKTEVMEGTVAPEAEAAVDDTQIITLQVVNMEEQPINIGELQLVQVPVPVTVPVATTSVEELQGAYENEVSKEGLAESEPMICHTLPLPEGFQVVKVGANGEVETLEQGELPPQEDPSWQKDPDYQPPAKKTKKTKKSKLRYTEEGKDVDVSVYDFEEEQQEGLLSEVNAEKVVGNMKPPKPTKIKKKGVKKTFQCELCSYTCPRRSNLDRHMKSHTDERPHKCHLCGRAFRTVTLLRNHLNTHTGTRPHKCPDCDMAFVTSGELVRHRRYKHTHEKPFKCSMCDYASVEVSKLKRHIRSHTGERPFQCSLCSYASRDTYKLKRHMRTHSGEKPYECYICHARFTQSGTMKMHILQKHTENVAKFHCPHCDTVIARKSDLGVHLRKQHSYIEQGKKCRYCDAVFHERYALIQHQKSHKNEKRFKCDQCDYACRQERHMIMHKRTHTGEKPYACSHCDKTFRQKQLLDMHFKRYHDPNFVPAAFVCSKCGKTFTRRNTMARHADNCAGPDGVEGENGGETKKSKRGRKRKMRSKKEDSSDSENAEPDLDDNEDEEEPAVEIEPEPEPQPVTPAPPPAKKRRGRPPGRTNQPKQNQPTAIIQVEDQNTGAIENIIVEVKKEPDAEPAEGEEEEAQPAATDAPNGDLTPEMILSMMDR
The assay is described as follows: proximity ligation; Duolink PLA in fixed, permeabilised human juvenile fibroblasts; two different antibody pairs for CTCF and CGGBP1; IgG and no-primary-antibody controls.

In assay [2] the target is T1, CTCF (human). The assay is described as follows: co-IP; reciprocal co-IPs of endogenous proteins from cleared, pre-cleared whole cell lysates of human foreskin fibroblasts; Protein G Sepharose, washed four times with PBS, immunoblot.
Assay [3] concerns the target T1, CTCF (human). The assay is described as follows: co-IP; reciprocal co-IPs of endogenous proteins from lysates of serum-starved human dermal fibroblasts; Protein G Sepharose, immunoblot.
The target of assay [4] is T1, CTCF (human). The assay is described as follows: co-IP; reciprocal co-IPs of endogenous proteins from lysates of human dermal fibroblasts stimulated after 48 h of serum starvation; Protein G Sepharose, immunoblot.
Assay [5] addresses T1, CTCF (human). The assay is described as follows: co-IP; reciprocal co-IPs of endogenous proteins from lysates of serum-starved human dermal fibroblasts; Protein G Sepharose, immunoblot. The source holds these as a separate data set.
For assay [6], the target named is T1, CTCF (human). The assay is described as follows: co-IP; reciprocal co-IPs of endogenous proteins from HEK-293T cell lysates; Protein G Sepharose, immunoblot.
For assay [7], the target named is T2, CGGBP1 (human) (UniProt Q9UFW8).
T2 sequence: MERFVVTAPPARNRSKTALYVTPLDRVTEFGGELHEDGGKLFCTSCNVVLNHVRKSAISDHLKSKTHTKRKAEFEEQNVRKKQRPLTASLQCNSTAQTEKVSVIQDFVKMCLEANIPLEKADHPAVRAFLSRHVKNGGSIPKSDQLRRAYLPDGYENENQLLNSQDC
The assay is described as follows: co-IP; reciprocal co-IPs of endogenous proteins from cleared, pre-cleared whole cell lysates of human foreskin fibroblasts; Protein G Sepharose, washed four times with PBS, immunoblot.

Assay [8] addresses T2, CGGBP1 (human). The assay is described as follows: co-IP; reciprocal co-IPs of endogenous proteins from lysates of serum-starved human dermal fibroblasts; Protein G Sepharose, immunoblot.
Assay [9] concerns the target T2, CGGBP1 (human). The assay is described as follows: co-IP; reciprocal co-IPs of endogenous proteins from lysates of human dermal fibroblasts stimulated after 48 h of serum starvation; Protein G Sepharose, immunoblot.
Assay [10] has as its target T2, CGGBP1 (human). The assay is described as follows: co-IP; reciprocal co-IPs of endogenous proteins from lysates of serum-starved human dermal fibroblasts; Protein G Sepharose, immunoblot. This is another data set of the same source.
Assay [11] deals with T2, CGGBP1 (human). The assay is described as follows: co-IP; reciprocal co-IPs of endogenous proteins from HEK-293T cell lysates; Protein G Sepharose, immunoblot.
Assay [12] has as its target T2, CGGBP1 (human). The assay is described as follows: co-IP; co-IP from HEK-293T nuclear fraction (REAP protocol); washed beads digested with DNaseI (6 units, 10 min, room temperature), pellet (bead-bound) and supernatant (released) blotted.

B1: CGGBP1 (protein, UniProt Q9UFW8 1-167)
chain: T2 sequence
Regarding B1, the binding entry was “binds” in assay [1]; “binds” in assay [2]; “binds weakly” in assay [3]; “binds weakly” in [4]; “no binding (condition: serum-starved cells)” in assay [5]; “binds” in [6].

B2: CTCF (protein, UniProt P49711 1-727)
chain: T1 sequence
For B2, the binding result in [7] was “binds”; in [8], “binds weakly”; in [9], “binds”; in assay [10], “no binding (condition: serum-starved cells)”; in assay [11], “binds”; in assay [12], “binds”.
